From US11078232B2, “Preparation and use of molecular site targeted and activated kinase inhibitor” (Yafei Shanghai Biology Medicine Science & Technology Co. …, priority 2017, dated 2021)
For some assays here: Not every detail of the peptide structures is certain; ends, links or a residue may be inferred. Some results were stated once for a whole list of compounds, not compound by compound. Residues, ends and D or L forms follow the SMILES beside them. *: point of attachment. Doxorubicin(3'-N) = COc1cccc2c1C(=O)c1c(O)c3c(c(O)c1C2=O)C[C@@](O)(C(=O)CO)C[C@@H]3O[C@H]1C[C@H](N*)[C@H](O)[C@H](C)O1; X1 = CN(CCNC(=O)c1cc(Oc2ccc(NC(=O)Nc3ccc(Cl)c(C(F)(F)F)c3)cc2)ccn1)*; Hexanoyl(6-maleimido) = O=C1C=CC(=O)N1CCCCCC(=O)*

Assays:
[1] = biological target: T1, aspartic endopeptidase (Homo sapiens, UniProt Q99538); test: Activation efficiency by aspartic endopeptidase (HPLC); type: biochemical; conditions: for Activation efficiencies (%): 1 mg/ml compound, enzyme 1 μmol/L, pH 6.0, 37° C., 2 hours, ratio of released product to original compound
T1 sequence (Q99538 18-323): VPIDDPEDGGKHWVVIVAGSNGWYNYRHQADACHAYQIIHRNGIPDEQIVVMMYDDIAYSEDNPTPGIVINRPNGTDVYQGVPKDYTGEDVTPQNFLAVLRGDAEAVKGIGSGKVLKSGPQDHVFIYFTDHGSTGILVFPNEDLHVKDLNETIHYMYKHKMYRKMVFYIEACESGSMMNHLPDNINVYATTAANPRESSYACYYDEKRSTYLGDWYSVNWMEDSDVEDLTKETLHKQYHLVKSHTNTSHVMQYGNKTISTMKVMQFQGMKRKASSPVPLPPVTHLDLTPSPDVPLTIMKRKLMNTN
Method: The sample compound and a portion of the control compound (herein, all of the control compounds can be synthesized by a method similar to that described in Examples 1-3) were uniformly diluted 10-fold to 1 mg/ml with the enzyme-digesting solution. In this experiment, 1 mg/ml of the sample compound was added to the aspartic endopeptidase (1 μmol/L, pH 6.0) at 37° C. for 2 hours. After the reaction, the enzyme digest was able to release the enzyme-digested product. The decrease in the compound and the increase in the product were examined by HPLC to compare the enzyme activation efficiency (the ratio of the product released by the enzyme cleavage to the original compound).

[2] = tested on: D121 lung cancer cells; test: D121 lung cancer immunotherapy model
[3] = tested on: CT26 tumor cells; test: CT26 immunotherapy model (Example 15); type: in vivo, mice; conditions: IV ⅓ MTD once a week, 6 weeks
Method: 1) CT26 tumor cells were purchased from ATCC, and the cells were cultured using a 10% fetal bovine serum DMEM medium at 37° C., 5% CO2. The cells were passaged every 3 days and the cells were used within 15 generations.
2) Tumor production: 10^6 live CT26 tumor cells were injected subcutaneously into the back of tumor-immunized […], and treatment was started when the tumor grew to about 0.3-0.4 cm. The tumor size (mm^3) of the mice was recorded and compared with the solvent control group. The tumor inhibition rate on day 42 was calculated in the solvent control group.
3) Treatment process: IV injection is used, and the drug is used at a dose of ⅓ MTD once a week Immunosuppressive IV injection treatment once a week for a total of 6 weeks of treatment.
4) The cure rate of 10 in each group was counted. After 50 days, the cured mice and wild groups were inoculated […] to detect recurrence.

[4] = tested on: human liver cancer HepG2 xenograft; test: Human liver cancer HepG2 xenograft model; type: in vivo, mice; conditions: equimolar 30 umol/kg, FIG. 5

CC(C)C[C@H](NC(=O)[C@H](CC(N)=O)NC(=O)[C@H](C)NC(=O)[C@H](C)N)C(=O)N(C)CCNC(=O)c1cc(Oc2ccc(NC(=O)Nc3ccc(Cl)c(C(F)(F)F)c3)cc2)ccn1 [Compound C1, AANL-Compound a, reference compound] (H-AANL-X1)
Activation efficiencies (%) [1]: 1.8%
Activation (verdict in words) ([1]; same test as activation efficiency): (Not activated)

C[C@H](N)C(=O)N[C@@H](C)C(=O)N[C@@H](CC(N)=O)C(=O)Nc1ccc(COC(=O)N(C)CCNC(=O)c2cc(Oc3ccc(NC(=O)Nc4ccc(Cl)c(C(F)(F)F)c4)cc3)ccn2)cc1 [Compound C2, AAN-PABC-Compound a, reference compound]
Activation efficiencies (%) [1]: 46.7%
CD8: CD45 (%) ([2]; right half of table: Anti-Pd L1 antibody alone or combination with it): 7.3%
Tumor inhibition rate/% (week 7) ([2]; right half of table: Anti-Pd L1 antibody alone or combination with it (antibody twice a week, two weeks)): 29.7%
Tumor inhibition rate/% (week 7) ([2]; single agent, i.v. ⅙ MTD once a week for 4 weeks): 25.7%
CD8: CD45 (%) ([2]; single agent, tumor CD8+ T cells among CD45-positive cells, flow cytometry): 8.6%

COc1cccc2c1C(=O)c1c(O)c3c(c(O)c1C2=O)C[C@@](O)(C(=O)CO)C[C@@H]3O[C@H]1C[C@H](NC(=O)[C@H](CC(C)C)NC(=O)[C@H](CC(N)=O)NC(=O)[C@H](C)NC(=O)[C@H](C)NC(=O)CCCCCN2C(=O)C=CC2=O)[C@H](O)[C@H](C)O1 [Compound C11, EMC-AANL-Adriamycin, reference compound] ({Hexanoyl(6-maleimido)}-AANL-{Doxorubicin(3'-N)})
Tumor inhibition rate % (Day 42) [3]: 79.5%

CC(NC(=O)C(C)NC(=O)[C@H](O)[C@H](O)[C@@H](O[C@@H]1O[C@H](CO)[C@H](O)[C@H](O)[C@H]1O)[C@H](O)CO)C(=O)NC(CC(N)=O)C(=O)Nc1ccc(COC(=O)N(C)CCNC(=O)c2cc(Oc3ccc(NC(=O)Nc4ccc(Cl)c(C(F)(F)F)c4)cc3)ccn2)cc1 (some centres unmarked) [Compound S1, Lacto-AAN-PABC-compound a]
tumor outcome (disappearance, cure, re-growth) [4]: after the administration twice, the tumor disappeared

CC(NC(=O)C(C)NC(=O)[C@H](O)[C@H](O)[C@@H](O[C@@H]1O[C@H](CO)[C@H](O)[C@H](O)[C@H]1O)[C@H](O)CO)C(=O)NC(CC(N)=O)C(=O)Nc1ccc(COC(=O)N(C)CCNC(=O)c2cc(Oc3ccc(NC(=O)Nc4ccc(Cl)c(C(F)(F)F)c4)c(F)c3)ccn2)cc1 (some centres unmarked) [Compound S2, Lacto-AAN-PABC-Compound b]
tumor outcome (disappearance, cure, re-growth) [4]: after the administration twice, the tumor disappeared

COc1cccc2c1C(=O)c1c(O)c3c(c(O)c1C2=O)C[C@](O)(C(=O)CO)CC3OC1C[C@H](NC(=O)OCc2ccc(NC(=O)C(CC(N)=O)NC(=O)C(C)NC(=O)C(C)NC(=O)[C@H](O)[C@H](O)[C@@H](O[C@@H]3O[C@H](CO)[C@H](O)[C@H](O)[C@H]3O)[C@H](O)CO)cc2)[C@H](O)[C@H](C)O1 (some centres unmarked) [Compound S3, Lacto-AAN-PABC-Adriamycin]
tumor outcome (disappearance, cure, re-growth) [4]: after the administration twice, the tumor disappeared

CC(NC(=O)C(C)NC(=O)[C@H](O)[C@H](O)[C@@H](O[C@@H]1O[C@H](CO)[C@H](O)[C@H](O)[C@H]1O)[C@H](O)CO)C(=O)NC(CC(N)=O)C(=O)Nc1ccc(COC(=O)Nc2nccc(-c3sc(C(C)(C)C)nc3-c3cccc(NS(=O)(=O)c4c(F)cccc4F)c3F)n2)cc1 (some centres unmarked) [Compound S4]
tumor outcome (disappearance, cure, re-growth) [4]: after the administration twice, the tumor disappeared

CC(NC(=O)C(C)NC(=O)[C@H](O)[C@H](O)[C@@H](O[C@@H]1O[C@H](CO)[C@H](O)[C@H](O)[C@H]1O)[C@H](O)CO)C(=O)NC(CC(N)=O)C(=O)Nc1ccc(COC(=O)Nc2c(-c3nc4ccc(N5CCN(C)CC5)cc4[nH]3)c(=O)[nH]c3cccc(F)c23)cc1 (some centres unmarked) [Compound S5]
tumor outcome (disappearance, cure, re-growth) [4]: after the administration twice, the tumor disappeared

CC(NC(=O)C(C)NC(=O)[C@H](O)[C@H](O)[C@@H](O[C@@H]1O[C@H](CO)[C@H](O)[C@H](O)[C@H]1O)[C@H](O)CO)C(=O)NC(CC(N)=O)C(=O)Nc1ccc(COC(=O)N2CC(C)(C)c3ccc(NC(=O)c4cccnc4NCc4ccncc4)cc32)cc1 (some centres unmarked) [Compound S6]
tumor outcome (disappearance, cure, re-growth) [4]: after the administration twice, the tumor disappeared
